Test results from PubChem BioAssay AID1345082 (National Center for Advancing Translational Sciences (NCATS), 2018).
About 4,000 (4.3%) of roughly 94,000 compounds were called active. This list was built around the results that the source calls inconclusive (neither active nor inactive); the mix of calls is not that of the screen. The call rests on the fitted dose curve; in most records, active means well fitted inhibition curve with a large enough effect; inconclusive means small, poorly fitted or top-dose-only effect; inactive means no such curve, though single readings can be large or run the other way. A potency beside an inconclusive call is a rough fit, not a confirmed value.
Potency means the concentration at half of the fitted maximal effect; tags describe the fitted curve by direction and shape.

Test: Cytotoxic Profiling in NIH 3T3 Cell Line of Diverse Libraries Using Quantitative High-Throughput Screening; further: nearly all actives have a fitted effect of over 55% in size
Settings: NIH 3T3 viability, CellTiter-Glo ATP luminescence, 48-72 h; series mostly up to 96.7 µM
Procedure, shortened: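 Luminescent ATP readout (CellTiter-Glo, 10 min RT) after 48 or 72 hr compound exposure of NIH 3T3 cells seeded at 400 cells/well in 1536-well format; quantitative HTS.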
For `CCN1c2cc(C(=O)Nc3cccc(F)c3)ccc2C(=O)N2CCCCCC21` (stereo not drawn), the Potency was inconclusive: 22.4 µM [inhibitor, full curve, poor fit].
For `CCc1nncn1C1CCN(S(=O)(=O)c2ccc(C)c(Cl)c2)CC1`, the Potency was “inactive”.
In the case of `COc1ccccc1OCc1cc(C(=O)NCc2cccc(C)c2)n[nH]1`, the Potency is reported as “inactive”.
With `CCCN1CCC2(CCN([S+](=O)([O-])c3cccc(C(F)(F)F)c3)CC2)Oc2ccccc21` the Potency was inconclusive: 39.8 µM [inhibitor, partial curve, poor fit].
For `Cc1noc(C)c1-c1cc2c(cc(C)n2C)c(NCCCn2ccnc2)n1`, the Potency was inconclusive: 56.2 µM [inhibitor, partial curve, poor fit].
For `O=C(NC1CCN(c2cc(-c3ccccc3)[nH]n2)CC1)c1cc(F)ccc1Cl`, the Potency was inconclusive: 25.1 µM [inhibitor, full curve].
With `COc1ccc(CN2CCNc3cc(Nc4ccccc4)ncc3C2)cn1` the Potency was active: 56.2 µM.
In the case of `c1ccc(CN2Cc3[nH]cnc3C[C@H]2c2nc(-c3ccccc3)no2)cc1`, the Potency is reported as inconclusive: 56.2 µM [inhibitor, partial curve, poor fit].
With `O=C(NCc1ccc2c(c1)OCO2)c1nc(-c2cccnc2)c2ccccn12` the Potency was inconclusive: 50.1 µM [inhibitor, partial curve, poor fit].
With `O=C(N1CCC(Cc2nc(-c3ccccc3)n[nH]2)C1)C1(c2ccccc2)CC1` (stereo not drawn) the Potency was inconclusive: 44.7 µM [inhibitor, partial curve, poor fit].
For `O=C(CCn1ccc(=O)[nH]c1=O)N1CCC(c2[nH]ncc2-c2ccccc2)CC1`, the Potency was “inactive”.
With `CC(C)Nc1ccc2nnc(-c3ccc(F)cn3)n2n1` the Potency was inconclusive: 44.7 µM [inhibitor, partial curve, poor fit].
For `Clc1ccc(-c2nnc3n2CCN(Cc2cncs2)C3)cc1`, the Potency was inconclusive: 56.2 µM [inhibitor, partial curve, poor fit].
For `O=C(C1CC1)N1CCC(O)(c2csc(CN3CCc4ccccc4C3)n2)CC1`, the Potency was inconclusive: 70.8 µM [inhibitor, partial curve].
For `Cc1ccc(S(=O)(=O)N2CCC(OC3CCN(Cc4ccccc4)CC3)CC2)c(C)c1`, the Potency was active: 31.6 µM.
In the case of `O=C(NC1CCCC1)N1CCN(C(=O)c2nc3cccnc3n(CCc3ccccc3)c2=O)CC1`, the Potency is reported as inconclusive: 70.8 µM [inhibitor, single point].
For `COCCn1c(C)cnc1CC1CCCN(Cc2ccc(F)cc2F)C1` (stereo not drawn), the Potency was inconclusive: 50.1 µM [inhibitor, partial curve, poor fit].
With `Cn1cnnc1CC1CCN(c2ncc(C(F)(F)F)cc2Cl)CC1` the Potency was “inactive”.
For `CCOc1ccccc1CN1CCC2(CCN(CCc3ccc(OC)cc3)CC2)Oc2ccccc21`, the Potency was inconclusive: 39.8 µM [inhibitor, partial curve, poor fit].
In the case of `CCOCc1nc(C2CCCN(C(=O)c3ccc(OC)cc3)C2)no1` (stereo not drawn), the Potency is reported as “inactive”.
For `CCCCc1ccc(CN2C[C@@H]3CC[C@H](C2)N(Cc2ccccn2)C3=O)s1`, the Potency was inconclusive: 39.8 µM [inhibitor, full curve, poor fit].
For `COc1ccc(CNC(=O)c2cc(-c3cccc(C(F)(F)F)c3)c3nncn3n2)cc1OC`, the Potency was inconclusive: 39.8 µM [inhibitor, partial curve, poor fit].
In the case of `CC(=O)N1CCCC(C(=O)N2CCCC2c2nc3ccncc3[nH]2)C1` (stereo not drawn), the Potency is reported as “inactive”.
In the case of `CN(Cc1cccc(N2CCN(S(=O)(=O)c3ccccc3C(F)(F)F)CC2)c1F)S(C)(=O)=O`, the Potency is reported as inconclusive: 11.2 µM [inhibitor, full curve, poor fit].
For `O=C1NC2(CCN(CC3CCCCC3)CC2)COc2ccccc21`, the Potency was active: 79.4 µM.
With `CC1(C)C(=O)N(Cc2ccccc2)[C@H]2CN(CC3CCOCC3)C[C@@H]2[S+]1(=O)[O-]` the Potency was inconclusive: 89.1 µM [inhibitor, partial curve, poor fit].
With `CC1(C)[C@H](Cc2cc(-c3ccc(F)cc3)on2)C[C@@H]1NC1CCC1` the Potency was active: 35.5 µM.
With `COCCc1noc(C2Cc3ccccc3N2C(=O)NCc2ccco2)n1` (stereo not drawn) the Potency was “inactive”.
In the case of `CCCN(CC1CCOC1)C(=O)Nc1cc(F)ccc1F` (stereo not drawn), the Potency is reported as “inactive”.
For `CN(C)Cc1nnc(C2CCCN(C(=O)CN(C)c3ccccc3)C2)n1C` (stereo not drawn), the Potency was “inactive”.
With `CN(C)c1nc2c(c(=O)[nH]1)CCN(Cc1ccc(Br)cc1)CC2` the Potency was “inactive”.
In the case of `COC1CN(C2CCN(C(=O)c3ccc(C)nc3)CC2)C12CCOCC2` (stereo not drawn), the Potency is reported as “inactive”.
For `CCCCn1c(=O)c(C(=O)N2CCN(C(=O)c3cccc(Cl)c3)CC2)nc2cccnc21`, the Potency was inconclusive: 44.7 µM [inhibitor, partial curve, poor fit].
For `CC(C)N1CCN(C2CCOC3(CCN(C(=O)C4CCCCC4)CC3)C2)CC1` (stereo not drawn), the Potency was “inactive”.
In the case of `C[C@@H]1CN(C(=O)Cn2c3c(c(=O)n2Cc2ccccc2)CCN(Cc2ccccc2)C3)C[C@H](C)O1`, the Potency is reported as inconclusive: 39.8 µM [inhibitor, partial curve, poor fit].
For `CC(C)CCN1CCC(N2CCN(C(=O)c3ccc(Cl)s3)CC2)C1=O` (stereo not drawn), the Potency was “inactive”.
In the case of `CN1c2cccnc2CN(Cc2ccc(OC(F)(F)F)cc2)CC[C@H]1CO`, the Potency is reported as inconclusive: 70.8 µM [inhibitor, partial curve, poor fit].
For `O=C(c1ccco1)N1CCCC(Cc2nc(C3CCOCC3)no2)C1` (stereo not drawn), the Potency was “inactive”.
In the case of `CCC1Oc2ccc(NC(=O)c3ccccc3OC(C)=O)cc2CN(Cc2ccccc2F)C1=O` (stereo not drawn), the Potency is reported as active: 14.1 µM.
In the case of `Cc1ccccc1CC(=O)N1CCC(Oc2ncccc2C(=O)N2CCCCC2)C1` (stereo not drawn), the Potency is reported as “inactive”.
In the case of `Cc1csc(NC(=O)[C@@H]2C[C@H](c3ccc(F)cc3)N(Cc3ccccc3Cl)C2)n1`, the Potency is reported as inconclusive: 22.4 µM [inhibitor, full curve, poor fit].
For `CC1(CCCCc2ccccc2)COc2ccc(C(=O)NC3CC3)cc2N1` (stereo not drawn), the Potency was inconclusive: 56.2 µM [inhibitor, partial curve, poor fit].
For `CC(=O)N1CCC2(CC1)CN(C(=O)c1c[nH]c3ccccc13)Cc1ccccc1O2`, the Potency was inconclusive: 39.8 µM [inhibitor, partial curve].
